# From patent US20020034767
# Key:
# peptide RRREEESEEE = system: T1, peptide RRREEESEEE
# T1 sequence: RRREEESEEE
# peptide RRREEESGGG = system: T2, peptide RRREEESGGG
# T2 sequence: RRREEESGGG
sequence,measurement,setting,value
G protein-coupled receptor kinase GRK5 (human) (sequence not shown),rhodopsin phosphorylation in the presence or absence of 100 nM G protein βγ subunits,G protein βγ subunits,the ability of GRK5 to phosphorylate rhodopsin is not affected by G protein βγ subunits
same,peptide phosphorylation,peptide RRREEESEEE,These peptides are not phosphorylated by GRK5
same,peptide phosphorylation,peptide RRREEESGGG,These peptides are not phosphorylated by GRK5
